Hit rate of the full screen: of about 390,000 compounds, about 2,200 (0.56%) were called active. Inconclusive results, whose numbers are uncertain, are shown with a selection of clear calls. Calls follow the shape of the dose curve; as a rule, active = well fitted inhibition curve with a large enough effect; inconclusive = small, poorly fitted or top-dose-only effect; inactive = no such curve, though single readings can be large or run the other way. Potencies beside an inconclusive call are fits to weak or partial responses and may not hold up.
target: Chromobox protein homolog 1 (Homo sapiens) (UniProt P83916); test: HTS for Inhibitors of HP1-beta Chromodomain Interactions with Methylated Histone Tails; conditions: AlphaScreen HP1-beta / biotin-H3K9me3 peptide binding; series mostly up to 114 µM; activity change, negative = inhibition: at the top concentration; also: nearly all actives have a fitted effect of over 70% in size
Sequence of UniProt P83916 (P83916 whole entry, looked up): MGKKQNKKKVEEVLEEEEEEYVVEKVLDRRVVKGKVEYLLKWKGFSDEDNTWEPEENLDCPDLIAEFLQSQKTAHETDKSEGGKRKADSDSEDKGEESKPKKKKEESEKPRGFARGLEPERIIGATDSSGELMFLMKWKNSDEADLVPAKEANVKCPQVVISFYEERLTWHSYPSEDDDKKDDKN
Method in brief: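 AlphaScreen: HP1-beta (50 nM) preformed 30 min with biotin-H3(1-18)K9me3 peptide (50 nM) in PBS pH 7.4, 0.01% Tween-20. Compound added for 30 min at RT, then streptavidin donor/nickel chelate acceptor beads (10 ug/mL) for 30 min.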
Potency is read from the fitted curve at half-maximal effect; tags tell the direction and shape of the fitted curve.

**Q.** Which Potency does the source give for `O=[N+]([O-])c1nn(-c2ccc3c(c2)OCCO3)n(O)c1=NCc1ccc(F)cc1` here?
**A.** inconclusive: 44.7 µM [inhibitor, partial curve]

**Q.** How did the “activity change, negative = inhibition” value turn out when `CCOC(=O)c1nn(-c2ccc(C)c(C)c2)c(=O)c(C#N)c1C` was run?
**A.** inactive: 28.9%

**Q.** With `O=C(OC(C(=O)NC1CCCCC1)c1ccccn1)c1cccs1` (stereo not given) as the molecule, how does the “activity change, negative = inhibition” value read?
**A.** inactive: 64%

**Q.** With `CSc1cccc(NC(=O)C2CCN(S(=O)(=O)c3ccc4[nH]c(=O)ccc4c3)CC2)c1` as the molecule, how does the “activity change, negative = inhibition” value read?
**A.** inactive: 18.1% [at 57 µM]

**Q.** How did the Potency turn out when `O=[N+]([O-])c1cccnc1Sc1ccccc1Cl` was run?
**A.** inconclusive: 50.1 µM [inhibitor, partial curve, poor fit]

**Q.** `CN1CCc2c(sc3c2C(=O)NC(c2ccc(-c4cccc(Cl)c4)o2)N3)C1` (stereo not given) was tested. Which Potency did it give?
**A.** inconclusive: 28.2 µM [inhibitor, full curve]

**Q.** With `O=C1C(Cl)=C(N2CCN(c3ccccc3[N+](=O)[O-])CC2)C(=O)c2ccccc21` as the molecule, how does the Potency read?
**A.** active: 8.91 µM

**Q.** Which Potency does the source give for `CN(C)c1ccc(C2CNC(c3ccc(Cl)c([N+](=O)[O-])c3)c3[nH]c4ccccc4c32)cc1` (stereo not given) here?
**A.** inconclusive: 10 µM [inhibitor, full curve]

**Q.** Which Potency does the source give for `COc1ccc(C(=O)NC(=S)Nc2ccccc2F)cc1` here?
**A.** inconclusive: 31.6 µM [inhibitor, partial curve, poor fit]

**Q.** With `O=[N+]([O-])c1cccnc1Sc1ccc(F)cc1` as the molecule, how does the Potency read?
**A.** inconclusive: 50.1 µM [inhibitor, partial curve]

**Q.** With `COc1ccc2[nH]c(=O)c(CN(Cc3ccccc3)Cc3nnnn3CC3CCCO3)cc2c1` (stereo not given) as the molecule, how does the “activity change, negative = inhibition” value read?
**A.** inactive: 18.8%

**Q.** `CC(C)c1ccc2c(c1)C1(NN=C(c3ccccc3)S1)C(=O)N2` (stereo not given) was tested. Which Potency did it give?
**A.** inconclusive: 22.4 µM [inhibitor, full curve]

**Q.** How did the “activity change, negative = inhibition” value turn out when `COC(=O)C(CC(=O)c1ccc(Cl)cc1)c1ccc(C)cc1` (stereo not given) was run?
**A.** inactive: 203%

**Q.** With `COc1ccc(CCNCC(=O)Nc2ccc(C)c(S(=O)(=O)N(C)C)c2)cc1` as the molecule, how does the Potency read?
**A.** inconclusive: 44.7 µM [inhibitor, partial curve]

**Q.** How did the Potency turn out when `Cc1ccccc1OCC(=O)N/N=C1\SCC(=O)N1Cc1ccccc1` was run?
**A.** inconclusive: 39.8 µM [inhibitor, single point]

**Q.** How did the Potency turn out when `CCOc1cccc(CNc2ccc(O)cc2)c1OCc1ccccc1Cl` was run?
**A.** inconclusive: 50.1 µM [inhibitor, partial curve]

**Q.** Which Potency does the source give for `COc1ccc(CNC(=O)COC(=O)c2ccc(OCc3c(C)noc3C)cc2)cc1OC` here?
**A.** inconclusive: 39.8 µM [inhibitor, single point]

**Q.** `COc1ccc2cc(CN(CC3CCCO3)C(=S)NCc3ccco3)c(=O)[nH]c2c1` (stereo not given) was tested. Which Potency did it give?
**A.** inconclusive: 25.1 µM [inhibitor, full curve]

**Q.** With `CC(=O)Nc1cccc(C(=O)Nc2cccc(S(=O)(=O)NCc3ccco3)c2)c1` as the molecule, how does the “activity change, negative = inhibition” value read?
**A.** inactive: -0.31%

**Q.** Which Potency does the source give for `COc1ccccc1/C=C/C=N/N1CCN(c2ccccn2)CC1` here?
**A.** inconclusive: 56.2 µM [inhibitor, single point]

**Q.** How did the “activity change, negative = inhibition” value turn out when `O=C(Nc1ccc(S(=O)(=O)N2CCCC2)cc1)c1cccnc1Cl` was run?
**A.** inactive: 12.3%

**Q.** Which Potency does the source give for `CC(C)c1ccc(CNc2ncccn2)cc1` here?
**A.** inconclusive: 44.7 µM [inhibitor, partial curve, poor fit]

**Q.** How did the Potency turn out when `COC(=O)c1c(NC(=O)COc2cc(C)c(Cl)c(C)c2)sc2c1CCCC2` was run?
**A.** inconclusive: 11.2 µM [inhibitor, partial curve]

**Q.** With `C/C(O)=C(\N=Nc1cc(C)ccc1O)C(N)=O` as the molecule, how does the Potency read?
**A.** inconclusive: 25.1 µM [inhibitor, full curve]

**Q.** Which Potency does the source give for `S=C(Nc1ccccc1)Nc1nc2ccccc2n1CCOc1ccc(Cl)cc1` here?
**A.** inconclusive: 22.4 µM [inhibitor, partial curve, poor fit]

**Q.** With `COc1ccc(CC(=O)NNc2ncnc3c2cnn3Cc2ccccc2)cc1OC` as the molecule, how does the Potency read?
**A.** inconclusive: 31.6 µM [inhibitor, partial curve]

**Q.** With `CN(C)CCNS(=O)(=O)c1ccc(N2CCc3ccccc32)c([N+](=O)[O-])c1` as the molecule, how does the Potency read?
**A.** inconclusive: 44.7 µM [inhibitor, partial curve]

**Q.** How did the Potency turn out when `Cc1cc(C(=O)COC(=O)c2ccc(O)cc2)c(C)n1CC(F)(F)F` was run?
**A.** inconclusive: 70.8 µM [inhibitor, partial curve, poor fit]

**Q.** Which “activity change, negative = inhibition” value does the source give for `COc1ccc(C2C=C(C34CC5CC(CC(C5)C3)C4)NC(=S)N2)cc1` (stereo not given) here?
**A.** inactive: -6.59%

**Q.** Which Potency does the source give for `Cc1c(Cl)sn(-c2ccc(Cl)cc2)c1=O` here?
**A.** inconclusive: 63.1 µM [inhibitor, partial curve, poor fit]

**Q.** With `Cc1ccc2[nH]cc(C(=O)CCl)c2c1` as the molecule, how does the “activity change, negative = inhibition” value read?
**A.** inactive: 3.83%

**Q.** `CC(C)(C)c1csc(NC(=O)c2cccnc2)n1` was tested. Which “activity change, negative = inhibition” value did it give?
**A.** inactive: 27.8%

**Q.** How did the “activity change, negative = inhibition” value turn out when `Cc1cc2nc(-c3ccc(OCc4ccc(F)cc4)cc3)cc(C(F)(F)F)n2n1` was run?
**A.** inactive: 37.2%

**Q.** With `CCC(CO)Oc1cc(NCc2ccccc2)c2ncn(C3CCCC3)c2c1` (stereo not given) as the molecule, how does the Potency read?
**A.** inconclusive: 50.1 µM [inhibitor, partial curve]

**Q.** For `Cc1cc(/C([O-])=C(/C(=S)Nc2ccccc2)[n+]2ccccc2)c(C)n1-c1ccccc1`, which Potency is on record?
**A.** inconclusive: 35.5 µM [inhibitor, partial curve]

**Q.** For `OCCN1CCN(C(=S)c2ccc(Cl)cc2)CC1`, which Potency is on record?
**A.** inconclusive: 14.1 µM [inhibitor, full curve, poor fit]

**Q.** How did the Potency turn out when `CC(=O)Nc1ccc(S(=O)(=O)N2CCC(N3CCCCCC3)CC2)cc1` was run?
**A.** inconclusive: 15.8 µM [inhibitor, partial curve, poor fit]

**Q.** How did the “activity change, negative = inhibition” value turn out when `CCOc1ccc(Sc2cc(C(=O)NC(C)CC)c3ccccc3n2)cc1` (stereo not given) was run?
**A.** inactive: 81.7%

**Q.** How did the Potency turn out when `CCc1ccc(NC(=O)CSc2nccn2-c2cccc(C)c2C)cc1` was run?
**A.** inconclusive: 12.6 µM [inhibitor, partial curve, poor fit]

**Q.** With `O=C(c1c(F)c(F)c(F)c(F)c1F)N1CCN(c2cccc(C(F)(F)F)c2)CC1` as the molecule, how does the Potency read?
**A.** inconclusive: 3.98 µM [inhibitor, partial curve, poor fit]

**Q.** `Nc1ccc(C=C2C=Cc3ccccc32)cc1` was tested. Which Potency did it give?
**A.** inconclusive: 44.7 µM [inhibitor, partial curve, poor fit]

**Q.** For `COc1cc(/C=N\n2nnnc2N)ccc1OCc1ccc(F)cc1`, which “activity change, negative = inhibition” value is on record?
**A.** inactive: 25.1%

**Q.** Which “activity change, negative = inhibition” value does the source give for `O=C1/C(=C\c2ccc(Br)o2)SC(=Nc2ccccc2)N1c1ccccc1` here?
**A.** inactive: -31.8%

**Q.** How did the Potency turn out when `C=C(C)C(=O)Nc1ccc2c(c1)OCCOCCOCCO2` was run?
**A.** active: 12.6 µM

**Q.** How did the “activity change, negative = inhibition” value turn out when `COc1ccc(NC(=O)CCn2nc(-c3ccccc3OC)c3c(C)cc(C)nc32)cc1` was run?
**A.** inactive: 9.32%
